The IC50 comes from the fitted curve, where viability falls to half of the control; a limit (>, <) means that the fit lies beyond the doses tested. AUC, from the same fit, is the share of area under the viability curve across the 256-fold dose range; the more sensitive the line, the further below 1. Where an entry number is given, a second screen of the drug exists; the two often differ. Where only a bound is given, the exact number is not on record here.

Compound in this assay: CS(=O)(=O)N1CCN(Cc2cc3nc(-c4cccc5[nH]ncc45)nc(N4CCOCC4)c3s2)CC1 [GDC0941]
The experiment in a line: Viability of human cancer cell lines after 72 h of drug (GDSC screen). The following applies: screen: GDSC drug entry 1058. The protocol:
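Human cancer cell lines in 384-well plates, medium with 10% serum, drug for 72 h over a 256-fold dose range (nine 2-fold or five 4-fold steps up to the top dose). Adherent lines were fixed and stained with the nucleic acid dye Syto60, suspension lines read with resazurin; signal relative to control wells, capped at 0 and 100%. One two-parameter sigmoid per drug and line, fitted in a mixed model over all curves with the slope shared within a line.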
One may read the IC50 as the point on the concentration scale where inhibition reaches its midpoint. As for “MSTO-211H (mesothelioma, adherent, top dose 4 µM)”, the AUC is 0.84 and the IC50 turned out to be 2380 nM.
The corresponding values for “MY-M12 (leukaemia, suspension, top dose 4 µM)” are 0.715 and 1110 nM.
Taken in the same sequence, the figures for “MZ1-PC (pancreas, adherent, top dose 4 µM)” were 0.967 and > 4000 nM.
For the cell line “MZ2-MEL (melanoma, adherent, top dose 4 µM)”, the AUC amounted to 0.703 and the IC50 was determined as 1040 nM.
The corresponding values for “MZ7-mel (melanoma, adherent, top dose 4 µM)” are 0.967 and > 4000 nM.
As to “Mo-T (hairy cell leukaemia, suspension, top dose 4 µM)”, the AUC came to 0.487 and the IC50 amounted to 230 nM.
Taken in the same sequence, the figures for “NALM-6 (B-cell leukaemia, suspension, top dose 4 µM)” were 0.461 and 200 nM.
Taken in the same sequence, the figures for “NAMALWA (Burkitt lymphoma, suspension, top dose 4 µM)” were 0.685 and 746 nM.
Taken in the same sequence, the figures for “NB1 (neuroblastoma, semi-adherent, top dose 4 µM)” were 0.649 and 676 nM.
As for “NB5 (neuroblastoma, adherent, top dose 4 µM)”, the AUC was determined as 0.674 and the IC50 is 769 nM.
As for “NB6 (neuroblastoma, adherent, top dose 4 µM)”, the AUC stood at 0.955 and the IC50 is > 4000 nM.
On to “NB7 (neuroblastoma, adherent, top dose 4 µM)”, for which the AUC came to 0.95 and the IC50 is > 4000 nM.
The corresponding values for “NB10 (neuroblastoma, adherent, top dose 4 µM)” are 0.966 and > 4000 nM.
On to “NB12 (neuroblastoma, adherent, top dose 4 µM)”, for which the AUC was 0.758 and the IC50 turned out to be 1850 nM.
The corresponding values for “NB13 (neuroblastoma, adherent, top dose 4 µM)” are 0.951 and > 4000 nM.
Regarding “NB14 (neuroblastoma, adherent, top dose 4 µM)”, the AUC is 0.723 and the IC50 worked out at 1020 nM.
As to “NB17 (neuroblastoma, adherent, top dose 4 µM)”, the AUC came out at 0.984 and the IC50 is > 4000 nM.
For “NB69 (neuroblastoma, adherent, top dose 4 µM)”, the AUC is 0.498 and the IC50 was 247 nM.
Regarding “NB(TU)1-10 (neuroblastoma, adherent, top dose 4 µM)”, the AUC came to 0.993 and the IC50 was > 4000 nM.
Regarding “NB-4 (acute myeloid leukaemia, suspension, top dose 4 µM)”, the AUC is 0.537 and the IC50 worked out at 309 nM.
Regarding “NCC010 (kidney, adherent, top dose 4 µM)”, the AUC turned out to be 0.831 and the IC50 came out at 2790 nM.
For the cell line “NCC021 (kidney, adherent, top dose 4 µM)”, the AUC was determined as 0.716 and the IC50 was 1150 nM.
As for “NCI-H28 (mesothelioma, adherent, top dose 4 µM)”, the AUC amounted to 0.752 and the IC50 amounted to 1700 nM.
Taken in the same sequence, the figures for “NCI-H64 (small cell lung carcinoma, suspension, top dose 4 µM)” were 0.901 and 2800 nM.
Take “NCI-H69 (small cell lung carcinoma, suspension, top dose 4 µM)”: the AUC was 0.715 and the IC50 was 1100 nM.
As to “NCI-H82 (small cell lung carcinoma, suspension, top dose 4 µM)”, the AUC came out at 0.743 and the IC50 was 1180 nM.
Taken in the same sequence, the figures for “NCI-H146 (small cell lung carcinoma, suspension, top dose 4 µM)” were 0.991 and > 4000 nM.
As to “NCI-H187 (small cell lung carcinoma, suspension, top dose 4 µM)”, the AUC amounted to 0.784 and the IC50 turned out to be 1860 nM.
Taken in the same sequence, the figures for “NCI-H209 (small cell lung carcinoma, suspension, top dose 4 µM)” were 0.916 and > 4000 nM.
Take “NCI-H211 (small cell lung carcinoma, adherent, top dose 4 µM)”: the AUC was found to be 0.98 and the IC50 is > 4000 nM.
The corresponding values for “NCI-H226 (lung squamous cell carcinoma, adherent, top dose 4 µM)” are 0.985 and > 4000 nM.
“NCI-H322M (lung adenocarcinoma, suspension, top dose 4 µM)”: the AUC was determined as 0.934 and the IC50 is > 4000 nM.
For the cell line “NCI-H345 (small cell lung carcinoma, suspension, top dose 4 µM)”, the AUC turned out to be 0.866 and the IC50 was determined as 3880 nM.
In the case of “NCI-H358 (lung adenocarcinoma, adherent, top dose 2 µM)”, the AUC was 0.97 and the IC50 is > 2000 nM.
The corresponding values for “NCI-H446 (small cell lung carcinoma, semi-adherent, top dose 4 µM)” are 0.677 and 812 nM.
In the case of “NCI-H508 (large intestine, semi-adherent, top dose 4 µM)”, the AUC was determined as 0.442 and the IC50 worked out at 156 nM.
Taken in the same sequence, the figures for “NCI-H510A (small cell lung carcinoma, semi-adherent, top dose 4 µM)” were 0.956 and > 4000 nM.
As to “NCI-H520 (lung squamous cell carcinoma, adherent, top dose 4 µM)”, the AUC worked out at 0.697 and the IC50 was 914 nM.
In the case of “NCI-H524 (small cell lung carcinoma, suspension, top dose 4 µM)”, the AUC was determined as 0.806 and the IC50 was found to be 1780 nM.
Turning to “NCI-H526 (small cell lung carcinoma, suspension, top dose 4 µM)”, the AUC turned out to be 0.774 and the IC50 was 1510 nM.
Consider “NCI-H596 (lung adenocarcinoma, adherent, top dose 4 µM)”, for which the AUC was 0.844 and the IC50 was > 4000 nM.
Turning to “NCI-H630 (large intestine, adherent, top dose 4 µM)”, the AUC was determined as 0.974 and the IC50 was > 4000 nM.
Turning to “NCI-H647 (non-small cell lung carcinoma, adherent, top dose 4 µM)”, the AUC was found to be 0.96 and the IC50 is > 4000 nM.
The corresponding values for “NCI-H650 (lung adenocarcinoma, adherent, top dose 4 µM)” are 0.879 and > 4000 nM.
As for “NCI-H720 (lung carcinoid, suspension, top dose 4 µM)”, the AUC is 0.637 and the IC50 was determined as 576 nM.
Taken in the same sequence, the figures for “NCI-H727 (lung carcinoid, adherent, top dose 4 µM)” were 0.829 and > 4000 nM.
The corresponding values for “NCI-H747 (large intestine, adherent, top dose 4 µM)” are 0.834 and 3460 nM.

Source of the values: the supplement of paper PMC4967469.
